From paper PMC5540273 (PLoS ONE, 2017)
For some of these results: The strong results were mostly taken out for another list; the other results follow. The entries are a selection whose mix differs from that of the whole data set.

How the values were obtained:
Conditions in all cases: concentration: 1 μM,replicates: in singlicate; n = 1
MKNK2 = test system: MKNK2
MLCK = test system: T1, MLCK
T1 construct: gene MYLK3

MLK1 = test system: T2, MLK1
T2 construct: gene MAP3K9

MLK2 = test system: MLK2
MLK3 = test system: MLK3
MRCKA = test system: MRCKA
MRCKB = test system: T3, MRCKB
T3 construct: gene CDC42BPB

MST1R = test system: MST1R
MST1 = test system: T4, MST1
T4 construct: gene STK4

MST2 = test system: T5, MST2
T5 construct: gene STK3
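Note: KINOMEscan kinase panel screen.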

SMILES | %Inh (MKNK2) [%] | %Inh (MLCK) [%] | %Inh (MLK1) [%] | %Inh (MLK2) [%] | %Inh (MLK3) [%] | %Inh (MRCKA) [%] | %Inh (MRCKB) [%] | %Inh (MST1R) [%] | %Inh (MST1) [%] | %Inh (MST2) [%]
CS(=O)(=O)c1ccccc1-c1nc(-c2ccc(F)cc2)c(-c2ccncc2)[nH]1 [SB-213663] | 13 | 0 | 0 | 0 | 0 | 29 | 36 | 7 | 14 | 0
Cc1ccc(C)c(Oc2nccc(-c3c(-c4ccc(F)cc4)ncn3C3CCNCC3)n2)c1.O=C(O)C(F)(F)F.O=C(O)C(F)(F)F.O=C(O)C(F)(F)F [SB-284852] | 0 | 0 | 6 | 1 | 0 | 97.5 | 59 | 0 | 0 | 25
O=C(O)c1ccc(-c2nc(-c3ccc(F)cc3)c(-c3ccncc3)[nH]2)cc1 [SB-202620] | 0 | 0 | 22 | 52 | 0 | 0 | 29 | 0 | 20 | 44
COc1cccc(C2=C(Nc3ccc(SC)cc3)C(=O)NC2=O)c1 [SB-331032] | 0 | 0 | 5 | 18 | 16 | 0 | 17 | 0 | 54 | 0
O=C1NC(=O)C(c2ccccc2Cl)=C1Nc1ccccc1 [SB-376715] | 45 | 11 | 0 | 0 | 0 | 7 | 0 | 44 | 0 | 9
O=C1NC(=O)C(c2ccccc2Cl)=C1Nc1cccc(C(=O)O)c1 [SB-390526] | 0 | 5 | 0 | 0 | 0 | 0 | 5 | 1 | 0 | 100
O=C1NC(=O)c2c1c(-c1ccccc1)cc1[nH]c3ccc(O)cc3c21 | 11 | 99.5 | 91.7 | 35 | 55 | 14 | 21 | 7 | 0 | 96.9
O=C1NC(=O)C(c2ccc(Cl)cc2)=C1Nc1cccc(C(=O)O)c1 [SB-360737] | 11 | 0 | 7 | 0 | 0 | 18 | 0 | 0 | 5 | 0
O=C1NC(=O)C(c2ccc(Cl)cc2)=C1Nc1ccc(O)c(Cl)c1 [SB-405367] | 29 | 0 | 0 | 48 | 21 | 18 | 0 | 8 | 0 | 23
Cc1cc(C)cc(Oc2nccc(-c3c(-c4ccc(F)cc4)ncn3C3CCNCC3)n2)c1.O=C(O)C(F)(F)F.O=C(O)C(F)(F)F.O=C(O)C(F)(F)F [SB-284851] | 0 | 0 | 8 | 8 | 17 | 42 | 0 | 0 | 6 | 1
O=C1NC(=O)C(c2ccc(Cl)cc2)=C1Nc1cccc(O)c1 [SB-333613] | 5 | 0 | 0 | 30 | 7 | 52 | 0 | 0 | 0 | 0
O=C1NC(=O)C(c2ccccc2)=C1Nc1ccc(Cl)c(C(=O)O)c1 [SB-390532] | 0 | 0 | 0 | 0 | 0 | 37 | 0 | 31 | 0 | 0
O=C1NC(=O)C(c2ccc(Cl)cc2)=C1Nc1ccccc1 [SB-317661] | 0 | 3 | 0 | 12 | 0 | 0 | 0 | 0 | 0 | 0
COc1ccc(C2=C(Nc3cccc(Cl)c3)C(=O)NC2=O)cc1 [SB-326892] | 0 | 0 | 0 | 24 | 0 | 0 | 0 | 9 | 8 | 28
O=C1NC(=O)C(c2ccccc2)=C1Nc1cc(Cl)c(O)c(Cl)c1 [SB-390530] | 21 | 7 | 0 | 32 | 0 | 0 | 0 | 23 | 2 | 22
CSc1ccc(NC2=C(c3cccc(Cl)c3)C(=O)NC2=O)cc1 [SB-341528] | 8 | 13 | 0 | 0 | 28 | 11 | 0 | 10 | 0 | 0
